Experimental data reported in PubChem BioAssay AID651820 (National Center for Advancing Translational Sciences (NCATS), 2012).
Several values for one entry are separate records, joined by “and”; a condition that tells them apart may be missing. Identical values can stand only once. Screen size: about 340,000 compounds; about 12,000 (3.5%) were called active. The inconclusive results got no clear call from the source; some entries with a clear call stand among them for comparison. The call rests on the fitted dose curve; in most records, active means well fitted inhibition curve with a large enough effect; inconclusive means small, poorly fitted or top-dose-only effect, or another doubt; inactive means no such curve, though single readings can be large or run the other way. Where the call is inconclusive, the potency comes from a doubtful curve fit.

assay: qHTS Assay for Inhibitors of Hepatitis C Virus (HCV); conditions: Huh7.5.1 HCVcc-Cre (HCVcc is cell-culture hepatitis C virus) infection, luciferase reporter, 44 h; activity change, negative = inhibition: at 41.8 µM (top of the series) unless noted
Procedure, shortened: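 Infectious HCV cell culture screen: compound-treated cells (1,000/well, pre-plated 4 h) are infected with HCVcc-Cre at roughly 0.5 moi and grown 44 h. Infection is quantified by luciferase signal after 15 min substrate incubation at room temperature.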
On the % scale 0 is the no-effect control and ±100 the full control effect; potency means the concentration at half of the fitted maximal effect; tags describe the fitted curve by direction and shape.

Row | Compound | Potency | activity change, negative = inhibition
1 | Cc1ccc(-c2cc(-c3ccccc3)c(C#N)c(N)n2)o1 | inconclusive: 11.2 µM [inhibitor, partial curve] | –
2 | CCCCN(CCCC)S(=O)(=O)c1ccc(NC(=O)CN2CCOCC2)cc1 | – | inactive: -3.48%
3 | COc1ccc(C(=O)N/C(=C\c2ccccc2)C(=O)Nc2ccc(C(=O)O)cc2)cc1 | – | inactive: 10.4%
4 | CC(=O)c1ccc(N2CCN(C(=O)C3CCN(S(=O)(=O)c4ccc5c(c4)CC(C)N5C(=O)C4CC4)CC3)CC2)cc1 (stereo not given) | inconclusive: 12.6 µM [inhibitor, partial curve] | –
5 | CCn1c(SCC(=O)Nc2nc(C)c(C)s2)nnc1-c1ccco1 | inconclusive: 0.794 µM [inhibitor, full curve, poor fit] | –
6 | C[C@@H](NC(=O)Cn1cnc2c(OCc3ccccc3)ncnc21)c1cccc2ccccc12 | inconclusive: 11.2 µM [inhibitor, partial curve] | –
7 | Cc1ccc(S(=O)(=O)Nc2ccccc2N(C)S(=O)(=O)c2ccc(C)cc2)cc1 | inconclusive: 5.01 µM [inhibitor, single point] | –
8 | COC(=O)c1ccc(C(=O)O)nc1 | – | inactive: 2.28%
9 | Cc1nn(Cc2ccccc2)c(Cl)c1C(=O)NC1CCCc2ccccc21 (stereo not given) | active: 35.5 µM | –
10 | Cc1ccc(S(=O)(=O)c2nc(-c3ccccc3F)oc2N2CC(C)OC(C)C2)cc1 (stereo not given) | inconclusive: 3.55 µM [inhibitor, full curve, poor fit] | –
11 | Cn1c(SCC(=O)Nc2nc(C(C)(C)C)cs2)nnc1C1CC1 | inconclusive: 22.4 µM [inhibitor, single point] | –
12 | Cc1cc(C)n2nc(SCc3cc(=O)oc4cc(O)ccc34)nc2n1 | inconclusive: 11.2 µM [inhibitor, single point] | –
13 | COc1ccc(-c2nn(-c3ccccc3F)cc2CNCCn2nc(C)cc2C)cc1 | inconclusive: 31.6 µM [inhibitor, single point] | –
14 | CN1CCN(c2ccccc2NC(=O)c2ccc3c(c2)OCCO3)CC1 | inconclusive: 7.94 µM [inhibitor, full curve, poor fit] | –
15 | O=C(NCC1CCCO1)c1ccc(Br)s1 (stereo not given) | – | inactive: 15.1%
16 | COC(=O)CCN(C(=O)c1cc(OC)c(OC)c(OC)c1)c1ccccn1 | inconclusive: 5.62 µM [inhibitor, single point] | –
17 | O=C(NCCNc1ccc([N+](=O)[O-])cc1)c1cc(F)c(F)cc1Cl | inconclusive: 31.6 µM [inhibitor, single point] | –
18 | COc1ccc(Oc2cc(C)c3cccc(C)c3n2)cc1 | inconclusive: 5.62 µM [inhibitor, single point] | –
19 | COc1ccccc1CC(=O)Nc1ccc([N+](=O)[O-])cc1OC | inconclusive: 22.4 µM [inhibitor, partial curve, poor fit] | –
20 | O=C(NCCN1CCN(C(=O)c2cccs2)CC1)C(=O)Nc1ccc(Br)cc1 | inconclusive: 31.6 µM [inhibitor, single point] | –

Row | Compound | Potency | activity change, negative = inhibition
21 | C[C@@H]1CCC[C@]2(O[C@H](CCO)C[C@@H](O)[C@@H]2O)O1 | – | inactive: 10.3%
22 | Cn1c(=O)c(=O)n(C)c2cc(N3CCCCC3)c(NS(=O)(=O)c3ccc([N+](=O)[O-])cc3)cc21 | – | inactive: 2.08%
23 | CCOc1ccc2nc(NC(=O)C34CC5CC(CC(NC(C)=O)(C5)C3)C4)sc2c1 | inconclusive: 31.6 µM [inhibitor, single point] | –
24 | O=C(Cc1ccccc1)N/N=C/c1cc(Br)cc(Br)c1O | inconclusive: 31.6 µM [inhibitor, single point] | –
25 | COC1=C(Nc2ccccc2)C(=O)c2ccccc2C1=O | inconclusive: 8.91 µM [inhibitor, partial curve] | –
26 | COC(=O)c1ccc(OC)c(CSc2nnc(COc3ccccc3)o2)c1 | inconclusive: 0.891 µM [inhibitor, full curve, poor fit] | –
27 | Cc1cc(C)cc(NC(=O)CSc2ccc(-c3cccs3)nn2)c1 | inconclusive: 22.4 µM [inhibitor, single point] | –
28 | Cc1cc(C)nc(/N=C(\N)Nc2ccc(S(N)(=O)=O)cc2)n1 | – | inactive: -15.3%
29 | CS(=O)(=O)N(CCc1ccccc1)CC(=O)N1CCN(c2ccc(F)cc2)CC1 | inconclusive: 31.6 µM [inhibitor, single point] | –
30 | Cc1ccc(S(=O)(=O)N2CCCC(C(=O)NCCc3ccc4c(c3)OCO4)C2)cc1 (stereo not given) | inconclusive: 11.2 µM [inhibitor, single point] | –
31 | CCN(C(=O)COC(=O)c1c2c(nc3ccccc13)CCC2)c1c(N)n(Cc2ccccc2)c(=O)[nH]c1=O | inconclusive: 3.55 µM [inhibitor, partial curve] | –
32 | CCOC(=O)c1ccc2ncc(C(=O)OCC)c(Nc3ccc(N4CCOCC4)cc3)c2c1 | inconclusive: 8.91 µM [inhibitor, partial curve] | –
33 | Nc1ccc2c(c1)C(=Cc1cccnc1)c1ccccc1-2 | inconclusive: 14.1 µM [inhibitor, partial curve] | –
34 | COc1ccc(CN2CCc3ccc(NC(=O)c4ccncc4)cc3C2)c(F)c1 | inconclusive: 31.6 µM [inhibitor, single point] | –
35 | COCCNc1nc(-c2ccccc2)nc2ccccc12 | inconclusive: 12.6 µM [inhibitor, partial curve] | –
36 | COc1ccc(OC)c(N(CC(=O)Nc2ccc3c(c2)OCO3)S(=O)(=O)c2ccccc2)c1 | inconclusive: 2.51 µM [inhibitor, full curve] and inconclusive: 31.6 µM [inhibitor, single point] | –
37 | COCCNC(=O)C(=O)Nc1cc2c3c(c1)CCC(=O)N3CCC2 | inconclusive: 14.1 µM [inhibitor, single point] | –
38 | N#Cc1c2c(c(-c3ccccc3Cl)[nH]c1=S)CCCC2 | inconclusive: 31.6 µM [inhibitor, single point] | –
39 | COc1ccc(Cl)cc1NC(=O)COC(=O)CCNC(C)=O | inconclusive: 15.8 µM [inhibitor, single point] | –
40 | CC(C)Nc1nc(Cl)nc(N(C#N)CN2C(=O)c3ccccc3C2=O)n1 | inconclusive: 7.08 µM [inhibitor, partial curve] | –
